Data published in the supplement of paper PMC8728848.
This is one part of the list.

Key:
Assay in all cases: glycan array binding signal (z-score within array); higher = stronger binding
Conditions in all cases: glycan notation: IUPAC condensed, linker removed
[1] = target: Gal(b1-2)Gal
Method in brief: (§1)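 Glycan array data came from 3228 arrays in the Consortium for Functional Glycomics database, and only arrays with an available protein sequence were kept. Glycan names were put into IUPAC-condensed notation, and columns mapping to the same glycan were averaged. The binding signal is a within-array Z-score, averaged across arrays of one protein sequence run at different concentrations or buffers and across linkers. A negative Z-score can be read as non-binding.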

[2] = target: Gal(b1-3)Gal
Method in brief: as §1

[3] = target: Gal(b1-3)Gal(b1-4)GlcNAc
Method in brief: as §1

[4] = target: Gal(b1-3)GalNAc
Method in brief: as §1

[5] = target: Gal(b1-3)GalNAc(b1-3)Gal(a1-4)Gal(b1-4)Glc
Method in brief: as §1

[6] = target: Gal(b1-3)GalNAc(b1-4)Gal(b1-4)Glc
Method in brief: as §1

[7] = target: Gal(b1-3)GalNAc(b1-4)[Neu5Ac(a2-3)]Gal(b1-4)Glc
Method in brief: as §1

[8] = target: Gal(b1-3)GlcNAc
Method in brief: as §1

[9] = target: Gal(b1-3)GlcNAc(b1-3)Gal(b1-3)GlcNAc
Method in brief: as §1

[10] = target: Gal(b1-3)GlcNAc(b1-3)Gal(b1-4)Glc
Method in brief: as §1

[11] = target: Gal(b1-3)GlcNAc(b1-3)Gal(b1-4)GlcNAc
Method in brief: as §1

[12] = target: Gal(b1-3)[Fuc(a1-4)]GlcNAc
Method in brief: as §1

[13] = target: Gal(b1-3)[Fuc(a1-4)]GlcNAc(b1-3)Gal(b1-3)[Fuc(a1-4)]GlcNAc
Method in brief: as §1

[14] = target: Gal(b1-3)[Fuc(a1-4)]GlcNAc(b1-3)Gal(b1-4)GlcNAc
Method in brief: as §1

[15] = target: Gal(b1-3)[Fuc(a1-4)]GlcNAc(b1-3)Gal(b1-4)[Fuc(a1-3)]GlcNAc
Method in brief: as §1

[16] = target: Gal(b1-3)[GlcNAc(b1-6)]GalNAc
Method in brief: as §1

[17] = target: Gal(b1-3)[Neu5Ac(a2-6)]GalNAc
Method in brief: as §1

[18] = target: Gal(b1-3)[Neu5Ac(a2-6)]GlcNAc(b1-6)Gal(b1-4)Glc
Method in brief: as §1

[19] = target: Gal(b1-3)[Neu5Ac(b2-6)]GalNAc
Method in brief: as §1

[20] = target: Gal(b1-4)GalNAc(a1-3)[Fuc(a1-2)]Gal(b1-4)GlcNAc
Method in brief: as §1

[21] = target: Gal(b1-4)GalNAc(b1-3)[Fuc(a1-2)]Gal(b1-4)GlcNAc
Method in brief: as §1

[22] = target: Gal(b1-4)Glc
Method in brief: as §1

[23] = target: Gal(b1-4)Glc6S
Method in brief: as §1

[24] = target: Gal(b1-4)GlcNAc
Method in brief: as §1

[25] = target: Gal(b1-4)GlcNAc(a1-6)Gal(b1-4)GlcNAc
Method in brief: as §1

[26] = target: Gal(b1-4)GlcNAc(b1-2)Man(a1-3)[Gal(b1-4)GlcNAc(b1-2)Man(a1-6)]Man(b1-4)GlcNAc(b1-4)GlcNAc
Method in brief: as §1

[27] = target: Gal(b1-4)GlcNAc(b1-3)Gal(b1-3)GlcNAc
Method in brief: as §1

[28] = target: Gal(b1-4)GlcNAc(b1-3)Gal(b1-4)Glc
Method in brief: as §1

[29] = target: Gal(b1-4)GlcNAc(b1-3)Gal(b1-4)GlcNAc
Method in brief: as §1

[30] = target: Gal(b1-4)GlcNAc(b1-3)Gal(b1-4)GlcNAc(b1-3)Gal(b1-4)GlcNAc
Method in brief: as §1

[31] = target: Gal(b1-4)GlcNAc(b1-3)Gal(b1-4)[Fuc(a1-3)]GlcNAc(b1-3)Gal(b1-4)[Fuc(a1-3)]GlcNAc
Method in brief: as §1

[32] = target: Gal(b1-4)GlcNAc(b1-3)GalNAc
Method in brief: as §1

[33] = target: Gal(b1-4)GlcNAc(b1-3)[Gal(b1-4)GlcNAc(b1-6)]Gal(b1-4)GlcNAc
Method in brief: as §1

[34] = target: Gal(b1-4)GlcNAc(b1-3)[GlcNAc(b1-6)]Gal(b1-4)GlcNAc
Method in brief: as §1

[35] = target: Gal(b1-4)GlcNAc(b1-6)Gal(b1-4)GlcNAc
Method in brief: as §1

[36] = target: Gal(b1-4)GlcNAc(b1-6)Gal(b1-4)GlcNAc(b1-6)GalNAc
Method in brief: as §1

[37] = target: Gal(b1-4)GlcNAc(b1-6)GalNAc
Method in brief: as §1

[38] = target: Gal(b1-4)GlcNAc(b1-6)[Gal(b1-3)]GalNAc
Method in brief: as §1

[39] = target: Gal3S(b1-3)GalNAc
Method in brief: as §1

[40] = target: Gal3S(b1-3)GlcNAc
Method in brief: as §1

[41] = target: Gal3S(b1-3)[Fuc(a1-4)]GlcNAc
Method in brief: as §1

[42] = target: Gal3S(b1-4)Glc
Method in brief: as §1

[43] = target: Gal3S(b1-4)Glc6S
Method in brief: as §1

[44] = target: Gal3S(b1-4)GlcNAc
Method in brief: as §1

[45] = target: Gal3S(b1-4)GlcNAc6S
Method in brief: as §1

[46] = target: Gal3S(b1-4)[Fuc(a1-3)]Glc
Method in brief: as §1

[47] = target: Gal3S4S(b1-4)GlcNAc
Method in brief: as §1

[48] = target: Gal3S6S(b1-4)GlcNAc
Method in brief: as §1

[49] = target: Gal3S6S(b1-4)GlcNAc6S
Method in brief: as §1

[50] = target: Gal4S(b1-4)GlcNAc
Method in brief: as §1

[51] = target: Gal4S6S(b1-4)GlcNAc
Method in brief: as §1

[52] = target: Gal6S(b1-4)Glc
Method in brief: as §1

[53] = target: Gal6S(b1-4)Glc6S
Method in brief: as §1

[54] = target: Gal6S(b1-4)GlcNAc
Method in brief: as §1

[55] = target: Gal6S(b1-4)GlcNAc6S
Method in brief: as §1

[56] = target: GalNAc(a1-3)Gal
Method in brief: as §1

[57] = target: GalNAc(a1-3)GalNAc
Method in brief: as §1

[58] = target: GalNAc(b1-3)Gal
Method in brief: as §1

[59] = target: GalNAc(b1-3)Gal(a1-4)Gal(b1-4)GlcNAc
Method in brief: as §1

[60] = target: GalNAc(b1-3)GalNAc
Method in brief: as §1

[61] = target: GalNAc(b1-4)GlcNAc
Method in brief: as §1

[62] = target: Glc(a1-4)Glc
Method in brief: as §1

[63] = target: Glc(a1-6)Glc(a1-6)Glc
Method in brief: as §1

[64] = target: Glc(b1-4)Glc
Method in brief: as §1

[65] = target: Glc(b1-6)Glc
Method in brief: as §1

[66] = target: GlcA(b1-3)Gal
Method in brief: as §1

[67] = target: GlcA(b1-3)GlcNAc
Method in brief: as §1

[68] = target: GlcA(b1-6)Gal
Method in brief: as §1

[69] = target: GlcNAc(a1-3)Gal(b1-4)GlcNAc
Method in brief: as §1

[70] = target: GlcNAc(a1-6)Gal(b1-4)GlcNAc
Method in brief: as §1

[71] = target: GlcNAc(b1-2)Gal(b1-3)GalNAc
Method in brief: as §1

[72] = target: GlcNAc(b1-2)Man(a1-3)[GlcNAc(b1-2)Man(a1-6)]Man(b1-4)GlcNAc(b1-4)GlcNAc
Method in brief: as §1

[73] = target: GlcNAc(b1-3)Gal
Method in brief: as §1

[74] = target: GlcNAc(b1-3)Gal(b1-3)GalNAc
Method in brief: as §1

[75] = target: GlcNAc(b1-3)Gal(b1-4)Glc
Method in brief: as §1

B1: Mannose Binding Protein (Lactobacillus plantarum) (protein)
chain: AERSEAALTHVDKDNFLKYFSLNGSATYDAKTGIVTITPNQNNQVGNFSLTSKIDMNKSFTLTGQVNLGSNPNGADGIGFAFHSGNTTDVGNAGGNLGIGGLQDAIGFKLDTWFNSYQAPSSDKNGSEISSTNSNGFGWNGDSANAPYGTFVKTSNQEISTANGSKVQRWWAQDTGESQALSKADIDGNFHDFVVNYDGATRTLTVSYTQASGKVLTWKTTVASSYQAMAMVVSASTGAAKNLQQFKLTSFDFQEAATVNVKYVDTTGHQLAQG
- glycan array binding signal (z-score) [1]: 0.419
- glycan array binding signal (z-score) [2]: -0.713
- glycan array binding signal (z-score) [3]: -0.955
- glycan array binding signal (z-score) [4]: -0.216
- glycan array binding signal (z-score) [5]: -0.213
- glycan array binding signal (z-score) [6]: -0.497
- glycan array binding signal (z-score) [7]: -0.681
- glycan array binding signal (z-score) [8]: -0.617
- glycan array binding signal (z-score) [9]: -0.897
- glycan array binding signal (z-score) [10]: -0.68
- glycan array binding signal (z-score) [11]: -0.663
- glycan array binding signal (z-score) [12]: -0.474
- glycan array binding signal (z-score) [13]: 0.66
- glycan array binding signal (z-score) [14]: -0.125
- glycan array binding signal (z-score) [15]: -0.125
- glycan array binding signal (z-score) [16]: -0.038
- glycan array binding signal (z-score) [17]: 0.628
- glycan array binding signal (z-score) [18]: -0.187
- glycan array binding signal (z-score) [19]: 0.317
- glycan array binding signal (z-score) [20]: -0.073
- glycan array binding signal (z-score) [21]: 0.063
- glycan array binding signal (z-score) [22]: -0.319
- glycan array binding signal (z-score) [23]: 1.19
- glycan array binding signal (z-score) [24]: 0.17
- glycan array binding signal (z-score) [25]: 1.44
- glycan array binding signal (z-score) [26]: -0.037
- glycan array binding signal (z-score) [27]: -0.276
- glycan array binding signal (z-score) [28]: -0.478
- glycan array binding signal (z-score) [29]: -0.526
- glycan array binding signal (z-score) [30]: -0.752
- glycan array binding signal (z-score) [31]: -0.302
- glycan array binding signal (z-score) [32]: -0.347
- glycan array binding signal (z-score) [33]: 0.406
- glycan array binding signal (z-score) [34]: -0.708
- glycan array binding signal (z-score) [35]: -0.654
- glycan array binding signal (z-score) [36]: -0.737
- glycan array binding signal (z-score) [37]: -0.505
- glycan array binding signal (z-score) [38]: -0.319
- glycan array binding signal (z-score) [39]: -0.041
- glycan array binding signal (z-score) [40]: 0.745
- glycan array binding signal (z-score) [41]: 1.06
- glycan array binding signal (z-score) [42]: 0.148
- glycan array binding signal (z-score) [43]: 0.429
- glycan array binding signal (z-score) [44]: 0.304
- glycan array binding signal (z-score) [45]: 0.258
- glycan array binding signal (z-score) [46]: -0.246
- glycan array binding signal (z-score) [47]: 0.117
- glycan array binding signal (z-score) [48]: 0.496
- glycan array binding signal (z-score) [49]: 0.933
- glycan array binding signal (z-score) [50]: 0.245
- glycan array binding signal (z-score) [51]: 0.846
- glycan array binding signal (z-score) [52]: 0.521
- glycan array binding signal (z-score) [53]: 0.095
- glycan array binding signal (z-score) [54]: 0.156
- glycan array binding signal (z-score) [55]: 1.22
- glycan array binding signal (z-score) [56]: 0.532
- glycan array binding signal (z-score) [57]: 0.128
- glycan array binding signal (z-score) [58]: -0.617
- glycan array binding signal (z-score) [59]: 4.17
- glycan array binding signal (z-score) [60]: 2.15
- glycan array binding signal (z-score) [61]: 0.161
- glycan array binding signal (z-score) [62]: -0.331
- glycan array binding signal (z-score) [63]: -0.457
- glycan array binding signal (z-score) [64]: -0.108
- glycan array binding signal (z-score) [65]: 0.102
- glycan array binding signal (z-score) [66]: -0.216
- glycan array binding signal (z-score) [67]: -0.177
- glycan array binding signal (z-score) [68]: -0.517
- glycan array binding signal (z-score) [69]: -0.038
- glycan array binding signal (z-score) [70]: -0.056
- glycan array binding signal (z-score) [71]: -0.421
- glycan array binding signal (z-score) [72]: -0.399
- glycan array binding signal (z-score) [73]: -0.377
- glycan array binding signal (z-score) [74]: 0.2
- glycan array binding signal (z-score) [75]: -0.18
